This is one part of the list. Sequences were assembled here from the parent chain. Inactive controls read about 0.05.
B1: TEV protease; numbered along this chain (parent)
chain: MGESLFKGPRDYNPISSSICHLTNESDGHTTSLYGIGFGPFIITNKHLFRRNNGTLVVQSLHGVFKVKDTTTLQQHLVDGRDMIIIRMPKDFPPFPQKLKFREPQREERICLVTTNFQTKSMSSMVSDTSCTFPSGDGIFWKHWIQTKDGQCGSPLVSTRDGFIVGIHSASNFTNTNNYFTSVPKNFMELLTNQEAQQWVSGWRLNADSVLWGGHKVFMVKPEEPFQPVKEATQL

Variants of: B1
Test: raw area under fraction-flipped curve 0-4 h after induction (AUC4h, not background-subtracted), DNA-recorder readout of cleavage of the substrate (dimensionless); higher = more cleavage of the substrate by the protease variant
Conditions: temperature: 34 °C; time window: 0-4 h after rhamnose induction
Description: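 In vivo DNA recorder in E. coli TOP10(DE3) ΔrhaA at 34 °C. Each TEVp single-site mutant (parent TEVp 0) is paired with a single-site variant of the 7-mer TEVs (canonical ENLYFQ|S). The substrate sits between flexible linkers in a Bxb1-sfGFP-TEVs-SsrA fusion, so cleavage stabilises Bxb1 and speeds flipping of a recombination array, read by NGS. The value is the raw area under the fraction-flipped curve over 0-4 h after rhamnose induction (AUC4h), with ≥20 reads per time point. It is not background-subtracted; inactive controls average about 0.047.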
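Also: Bxb1 expression induced with 0.2% (w/v) L-rhamnose at OD600 near 0.5, cultures sampled hourly, flipped fraction per protease–substrate barcode pair counted by paired-end Illumina sequencing.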

| Variant | area with substrate ENLYFAS | area with substrate ENLYFES | area with substrate ENLYFFS | area with substrate ENLYFIS | area with substrate ENLYFKS | area with substrate ENLYFLS | area with substrate ENLYFMS | area with substrate ENLYFRS | area with substrate ENLYFTS | area with substrate ENLYFVS | area with substrate ENLYFDS | area with substrate ENLYFHS | area with substrate ENLYFNS | area with substrate ENLYFPS | area with substrate ENLYFSS | area with substrate ENLYFWS | area with substrate ENLYFYS | area with substrate ENLYFCS | area with substrate ENLYFGS |
| --- | --- | --- | --- | --- | --- | --- | --- | --- | --- | --- | --- | --- | --- | --- | --- | --- | --- | --- | --- |
| Q146L | 0.0542 | 0.0641 | 0.0685 | 0.0544 | 0.0647 | 0.0666 | 0.0802 | 0.0568 | 0.0588 | 0.0547 |  |  |  |  |  |  |  |  |  |
| V229P | 0.0433 | 0.083 | 0.0603 | 0.0552 | 0.0589 | 0.0463 | 0.0807 | 0.0453 | 0.0613 | 0.0584 | 0.067 | 0.0645 | 0.0428 | 0.0612 | 0.0548 | 0.0556 | 0.049 |  |  |
| R50V | 0.0516 |  | 0.0718 | 0.0584 |  |  | 0.0681 | 0.0456 |  |  |  |  | 0.0657 | 0.0747 | 0.0393 | 0.0647 |  | 0.0681 |  |
| D91V | 0.0543 | 0.0587 | 0.0606 | 0.0494 | 0.0575 |  | 0.0599 | 0.0621 |  | 0.0613 | 0.0547 | 0.0504 | 0.0691 | 0.0611 |  |  | 0.0572 |  |  |
| W141Y | 0.0731 | 0.0578 | 0.0635 | 0.0203 |  | 0.0428 | 0.0823 |  |  |  |  |  |  | 0.0556 |  | 0.0388 |  | 0.0543 |  |
| I164S | 0.059 | 0.0524 | 0.0534 | 0.0538 | 0.0552 | 0.0485 | 0.059 |  | 0.0576 | 0.0573 |  | 0.0594 | 0.0475 |  | 0.0473 | 0.0636 | 0.0777 | 0.0356 | 0.0497 |
| S171D | 0.0561 | 0.0543 | 0.0667 | 0.0572 | 0.0683 | 0.0684 | 0.0648 | 0.0452 | 0.0509 | 0.0645 |  | 0.0493 |  | 0.0653 |  | 0.0565 |  |  |  |
| S130L | 0.0586 | 0.0597 |  | 0.0626 | 0.0676 | 0.0543 | 0.0749 | 0.049 | 0.0479 |  | 0.0277 | 0.0583 |  | 0.0562 | 0.0553 | 0.0644 | 0.0449 |  | 0.0549 |
| Q151A | 0.0594 |  | 0.0721 | 0.0555 | 0.0621 |  | 0.0686 | 0.0461 | 0.0577 |  |  |  |  | 0.0603 |  |  | 0.0594 | 0.0647 | 0.0063 |
| G54D | 0.0549 | 0.0539 | 0.0668 | 0.0547 |  |  | 0.0609 | 0.0693 | 0.0604 | 0.0608 | 0.0246 |  |  |  | 0.0452 | 0.0463 | 0.0599 | 0.0612 | 0.0546 |
| E189W | 0.0361 | 0.05 | 0.0601 | 0.0527 | 0.0608 |  | 0.0772 |  | 0.0565 |  | 0.0626 |  | 0.0593 | 0.0555 |  |  | 0.0236 | 0.054 |  |
| V67H | 0.0635 | 0.0626 | 0.0569 | 0.0656 |  | 0.0569 | 0.0614 |  | 0.0567 | 0.061 |  | 0.0478 | 0.0515 | 0.0495 |  |  |  | 0.0542 | 0.047 |
| V67Q | 0.0685 |  | 0.0695 | 0.0765 |  | 0.0682 | 0.0535 | 0.0596 | 0.0324 | 0.0616 | 0.0765 | 0.0576 | 0.0648 | 0.0067 | 0.112 |  |  |  |  |
| K100M | 0.0613 |  |  |  | 0.0678 |  |  |  | 0.0314 |  |  |  |  | 0.0544 |  | 0.0658 | 0.0503 |  | 0.0462 |
| K142Q | 0.0602 | 0.0599 | 0.0617 | 0.0604 | 0.056 |  | 0.075 |  | 0.0792 | 0.0609 |  |  | 0.0594 | 0.0608 |  |  |  | 0.0496 |  |
| Q197P | 0.0642 | 0.0527 | 0.0625 | 0.0497 | 0.0685 | 0.0538 | 0.0767 | 0.0556 | 0.0681 |  |  |  | 0.0752 | 0.0616 |  | 0.0589 |  | 0.0532 |  |
| L205A | 0.0425 | 0.0522 | 0.0827 | 0.0572 |  |  | 0.0473 | 0.0471 | 0.0288 |  |  | 0.0527 | 0.0403 |  |  | 0.0604 |  | 0.0558 | 0.056 |
| L205D | 0.0525 |  |  | 0.0979 | 0.0589 |  | 0.058 |  | 0.0491 |  |  | 0.0739 |  | 0.126 |  | 0.0667 |  | 0.0601 |  |
| L205R | 0.0632 | 0.0616 |  | 0.0538 |  |  | 0.0667 |  |  |  |  |  | 0.0603 | 0.0611 |  | 0.0587 |  |  | 0.0713 |
| G80Y | 0.0659 | 0.0703 | 0.0635 | 0.0497 |  | 0.0507 |  | 0.0594 | 0.0642 |  | 0.0583 | 0.0642 | 0.064 | 0.0645 | 0.0477 |  | 0.0336 | 0.0492 |  |
| K90Q | 0.0693 |  | 0.0676 | 0.007 |  | 0.062 | 0.0696 |  | 0.0563 | 0.0722 |  |  | 0.0715 | 0.0496 | 0.0676 |  |  | 0.0675 |  |
| V126L | 0.0609 | 0.0847 | 0.0754 | 0.0643 |  | 0.0433 |  | 0.0373 |  | 0.0509 |  |  |  |  |  |  |  | 0.0642 |  |
| L22F | 0.0488 | 0.0535 | 0.0619 | 0.05 | 0.0524 | 0.0366 | 0.0609 |  | 0.0582 | 0.0481 | 0.0508 | 0.0253 | 0.0612 | 0.0553 | 0.0553 | 0.0556 | 0.0519 | 0.0741 | 0.0548 |
| N206A | 0.0509 |  |  |  |  |  |  |  |  |  |  |  |  |  |  |  |  |  |  |
| N206I | 0.0563 | 0.0734 |  | 0.052 |  |  | 0.0649 |  | 0.044 |  | 0.0519 |  |  | 0.0627 |  |  | 0.0648 | 0.0567 |  |
| N193R | 0.0632 | 0.0573 |  | 0.06 | 0.0505 |  | 0.0568 | 0.0539 | 0.0452 |  |  |  |  |  |  |  |  |  |  |
| S127V | 0.0672 | 0.06 | 0.0696 | 0.0654 |  |  | 0.0704 | 0.067 | 0.0662 | 0.0628 | 0.0528 | 0.0528 | 0.0595 | 0.059 |  |  | 0.0684 | 0.0564 | 0.0646 |
| K185W | 0.0543 | 0.0616 | 0.065 | 0.0589 | 0.088 | 0.0649 | 0.0694 | 0.0666 | 0.0736 | 0.046 | 0.057 | 0.0552 | 0.0553 | 0.0599 | 0.0322 | 0.0579 | 0.0539 | 0.0671 | 0.0919 |
| K68M | 0.06 | 0.0616 | 0.0637 | 0.0551 | 0.0782 | 0.0511 | 0.0634 | 0.0386 |  |  |  | 0.0744 | 0.0642 | 0.0561 |  | 0.0546 | 0.064 |  |  |

From the supplement of paper PMC12217912
